# Laboratory results published in the supplement of paper PMC8728848.
# The list shows a part of the results.
# B1: CvGal2 (Crassostrea virginica) (protein)
# chain: MGSSHHHHHHSSGLVPRGSHMRIREAGKRKDTTKVYQIPDGLFPGQQVMLRGRVPWGSKSFSINFSATPRMGEGDILFHLNPRPSEGVCIRNALLNGSWGAEEKWQPYFPFDDGRSFSVKIEVTNDAFRTFVNGRPFVDFLHRTDFRAGKYLTLREGAEYYDVIFQSKPNIPLTTAIHNGMRIGKTIRIRGMCTAQDGFAINFNDNRNNIYFHFNARPAQRTVVRNSYFGSWGNEETAISKEFPFYPFLYFYASFVCMEDKFAVYVNDEHFIDFAHRGNPNNISVLQIKGSVNVLDTECLEPMGEDAMTEVDSGLENGDLFVLNGLMTERGKTFAVNFLNGFTENDDIALHFNPRKSTGEVVLNSRYGGAWQSEEKVALPGVFWSNRPLQVKVETKRNKFKIYVNGVDLAKYKIRGNVEDVHAVQVKGDVFLLETLLLKRLMKPVWERLTGGIRPGTWVTLQGTPKKNWQQFVVNFALDDTLDGDIAFHFNVRRGARQVVRNHRQSGAWGREETVTPFFAFDSEATFEIVFFVKEEKFLIYFNGKLFFEFVHRVPVERITHIYMDGDCNFYEPEVVI
# Columns and labels:
# Test in all cases: glycan array binding signal (z-score within array); higher = stronger binding
# Settings in all cases: glycan notation: IUPAC condensed, linker removed
# Fuc(a1-2)Gal = molecular target: Fuc(a1-2)Gal
# In short: (§1)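 Arrays were curated from the Consortium for Functional Glycomics database, 3228 in total, and kept only where the protein sequence was available. Binding is expressed as a within-array Z-score. This score was averaged across arrays of the same protein sequence at different concentrations or buffers and across linkers, and negative values can be read as non-binding.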
# Fuc(a1-2)Gal(b1-3)GalNAc = molecular target: Fuc(a1-2)Gal(b1-3)GalNAc
# In short: as §1
# [1] = molecular target: Fuc(a1-2)Gal(b1-3)GalNAc(a1-3)[Fuc(a1-2)]Gal(b1-4)Glc
# In short: as §1
# [2] = molecular target: Fuc(a1-2)Gal(b1-3)GalNAc(a1-3)[Fuc(a1-2)]Gal(b1-4)GlcNAc
# In short: as §1
# [3] = molecular target: Fuc(a1-2)Gal(b1-3)GalNAc(b1-3)Gal
# In short: as §1
# [4] = molecular target: Fuc(a1-2)Gal(b1-3)GalNAc(b1-3)Gal(a1-4)Gal(b1-4)Glc
# In short: as §1
# [5] = molecular target: Fuc(a1-2)Gal(b1-3)GalNAc(b1-4)[Neu5Ac(a2-3)]Gal(b1-4)Glc
# In short: as §1
# Fuc(a1-2)Gal(b1-3)GlcNAc = molecular target: Fuc(a1-2)Gal(b1-3)GlcNAc
# In short: as §1
# [6] = molecular target: Fuc(a1-2)Gal(b1-3)GlcNAc(b1-2)Man(a1-3)[Fuc(a1-2)Gal(b1-3)GlcNAc(b1-2)Man(a1-6)]Man(b1-4)GlcNAc(b1-4)GlcNAc
# In short: as §1
# [7] = molecular target: Fuc(a1-2)Gal(b1-3)GlcNAc(b1-2)Man(a1-3)[Fuc(a1-2)Gal(b1-3)GlcNAc(b1-2)Man(a1-6)]Man(b1-4)GlcNAc(b1-4)[Fuc(a1-6)]GlcNAc
# In short: as §1
# [8] = molecular target: Fuc(a1-2)Gal(b1-3)GlcNAc(b1-3)Gal(b1-4)Glc
# In short: as §1
# [9] = molecular target: Fuc(a1-2)Gal(b1-3)GlcNAc(b1-3)GalNAc
# In short: as §1
# [10] = molecular target: Fuc(a1-2)Gal(b1-3)GlcNAc(b1-3)[Fuc(a1-2)Gal(b1-3)GlcNAc(b1-6)]GalNAc
# In short: as §1
# [11] = molecular target: Fuc(a1-2)Gal(b1-3)GlcNAc(b1-3)[Gal(b1-4)GlcNAc(b1-6)]Gal(b1-4)Glc
# In short: as §1
# [12] = molecular target: Fuc(a1-2)Gal(b1-3)GlcNAc(b1-3)[Neu5Ac(a2-6)Gal(b1-4)GlcNAc(b1-6)]Gal(b1-4)Glc
# In short: as §1
# [13] = molecular target: Fuc(a1-2)Gal(b1-3)GlcNAc6S
# In short: as §1
# [14] = molecular target: Fuc(a1-2)Gal(b1-3)[Fuc(a1-4)]GlcNAc
# In short: as §1
# [15] = molecular target: Fuc(a1-2)Gal(b1-3)[Fuc(a1-4)]GlcNAc(b1-2)Man(a1-3)[Fuc(a1-2)Gal(b1-3)[Fuc(a1-4)]GlcNAc(b1-2)Man(a1-3)]Man(b1-4)GlcNAc(b1-4)GlcNAc
# In short: as §1
# [16] = molecular target: Fuc(a1-2)Gal(b1-3)[Fuc(a1-4)]GlcNAc(b1-2)Man(a1-3)[Fuc(a1-2)Gal(b1-3)[Fuc(a1-4)]GlcNAc(b1-2)Man(a1-6)]Man(b1-4)GlcNAc(b1-4)[Fuc(a1-6)]GlcNAc(b1-4)[Fuc(a1-6)]GlcNAc
# In short: as §1
# [17] = molecular target: Fuc(a1-2)Gal(b1-3)[Fuc(a1-4)]GlcNAc(b1-3)[Fuc(a1-3)[Gal(b1-4)]GlcNAc(b1-6)]Gal(b1-4)Glc
# In short: as §1
# [18] = molecular target: Fuc(a1-2)Gal(b1-3)[Fuc(a1-4)]GlcNAc(b1-3)[Gal(b1-4)GlcNAc(b1-6)]Gal(b1-4)Glc
# In short: as §1
# [19] = molecular target: Fuc(a1-2)Gal(b1-4)Fuc(a1-3)]GlcNAc(b1-2)Man(a1-3)[Fuc(a1-2)Gal(b1-4)[Fuc(a1-3)]GlcNAc(b1-2)Man(a1-6)]Man(b1-4)GlcNAc(b1-4)GlcNAc
# In short: as §1
# Fuc(a1-2)Gal(b1-4)Glc = molecular target: Fuc(a1-2)Gal(b1-4)Glc
# In short: as §1
# Fuc(a1-2)Gal(b1-4)Glc6S = molecular target: Fuc(a1-2)Gal(b1-4)Glc6S
# In short: as §1
# Fuc(a1-2)Gal(b1-4)GlcNAc = molecular target: Fuc(a1-2)Gal(b1-4)GlcNAc
# In short: as §1
# [20] = molecular target: Fuc(a1-2)Gal(b1-4)GlcNAc(b1-2)Man
# In short: as §1
# [21] = molecular target: Fuc(a1-2)Gal(b1-4)GlcNAc(b1-2)Man(a1-3)[Fuc(a1-2)Gal(b1-4)GlcNAc(b1-2)Man(a1-6)]Man(b1-4)GlcNAc(b1-4)GlcNAc
# In short: as §1
# [22] = molecular target: Fuc(a1-2)Gal(b1-4)GlcNAc(b1-2)Man(a1-3)[Fuc(a1-2)Gal(b1-4)GlcNAc(b1-2)Man(a1-6)]Man(b1-4)GlcNAc(b1-4)[Fuc(a1-6)]GlcNAc
# In short: as §1
# [23] = molecular target: Fuc(a1-2)Gal(b1-4)GlcNAc(b1-2)[Fuc(a1-2)Gal(b1-4)GlcNAc(b1-4)]Man(a1-3)[Fuc(a1-2)Gal(b1-4)GlcNAc(b1-2)Man(a1-6)]Man(b1-4)GlcNAc(b1-4)GlcNAc
# In short: as §1
# [24] = molecular target: Fuc(a1-2)Gal(b1-4)GlcNAc(b1-3)Gal(b1-4)GlcNAc
# In short: as §1
# [25] = molecular target: Fuc(a1-2)Gal(b1-4)GlcNAc(b1-3)Gal(b1-4)GlcNAc(b1-2)Man(a1-3)[Fuc(a1-2)Gal(b1-4)GlcNAc(b1-3)Gal(b1-4)GlcNAc(b1-2)Man(a1-6)]Man(b1-4)GlcNAc(b1-4)GlcNAc
# In short: as §1
# [26] = molecular target: Fuc(a1-2)Gal(b1-4)GlcNAc(b1-3)Gal(b1-4)GlcNAc(b1-3)Gal(b1-4)GlcNAc
# In short: as §1
# [27] = molecular target: Fuc(a1-2)Gal(b1-4)GlcNAc(b1-3)GalNAc
# In short: as §1
# [28] = molecular target: Fuc(a1-2)Gal(b1-4)GlcNAc(b1-3)[Fuc(a1-2)Gal(b1-4)GlcNAc(b1-6)]GalNAc
# In short: as §1
# [29] = molecular target: Fuc(a1-2)Gal(b1-4)GlcNAc(b1-3)[Fuc(a1-3)[Gal(b1-4)]GlcNAc(b1-6)]Gal(b1-4)Glc
# In short: as §1
# [30] = molecular target: Fuc(a1-2)Gal(b1-4)GlcNAc(b1-6)GalNAc
# In short: as §1
# [31] = molecular target: Fuc(a1-2)Gal(b1-4)GlcNAc6S
# In short: as §1
# [32] = molecular target: Fuc(a1-2)Gal(b1-4)[Fuc(a1-3)]GlcNAc
# In short: as §1
# [33] = molecular target: Fuc(a1-2)Gal(b1-4)[Fuc(a1-3)]GlcNAc(b1-2)Man(a1-3)[Fuc(a1-2)Gal(b1-4)[Fuc(a1-3)]GlcNAc(b1-2)Man(a1-6)]Man(b1-4)GlcNAc(b1-4)[Fuc(a1-6)]GlcNAc
# In short: as §1
# [34] = molecular target: Fuc(a1-2)Gal(b1-4)[Fuc(a1-3)]GlcNAc(b1-2)[Fuc(a1-2)Gal(b1-4)[Fuc(a1-3)]GlcNAc(b1-4)]Man(a1-3)[Fuc(a1-2)Gal(b1-4)[Fuc(a1-3)]GlcNAc(b1-2)Man(a1-6)]Man(b1-4)GlcNAc(b1-4)GlcNAc
# In short: as §1
# [35] = molecular target: Fuc(a1-2)Gal(b1-4)[Fuc(a1-3)]GlcNAc(b1-3)Gal(b1-4)[Fuc(a1-3)]GlcNAc
# In short: as §1
# [36] = molecular target: Fuc(a1-2)Gal(b1-4)[Fuc(a1-3)]GlcNAc(b1-3)Gal(b1-4)[Fuc(a1-3)]GlcNAc(b1-3)Gal(b1-4)[Fuc(a1-3)]GlcNAc
# In short: as §1
# [37] = molecular target: Fuc(a1-2)Gal(b1-4)[Fuc(a1-3)]GlcNAc(b1-3)GalNAc
# In short: as §1
# [38] = molecular target: Fuc(a1-2)Gal(b1-4)[Fuc(a1-3)]GlcNAc(b1-3)[Neu5Ac(a2-6)Gal(b1-4)GlcNAc(b1-6)]Gal(b1-4)Glc
# In short: as §1
# [39] = molecular target: Fuc(a1-2)Gal3S(b1-4)GlcNAc
# In short: as §1
binder,measurement,setting,value
B1,glycan array binding signal (z-score),Fuc(a1-2)Gal,-0.31
same,glycan array binding signal (z-score),Fuc(a1-2)Gal(b1-3)GalNAc,-0.341
same,glycan array binding signal (z-score),[1],1.62
same,glycan array binding signal (z-score),[2],4.44
same,glycan array binding signal (z-score),[3],-0.32
same,glycan array binding signal (z-score),[4],-0.332
same,glycan array binding signal (z-score),[5],-0.326
same,glycan array binding signal (z-score),Fuc(a1-2)Gal(b1-3)GlcNAc,0.888
same,glycan array binding signal (z-score),[6],1.73
same,glycan array binding signal (z-score),[7],-0.154
same,glycan array binding signal (z-score),[8],1.09
same,glycan array binding signal (z-score),[9],0.24
same,glycan array binding signal (z-score),[10],0.977
same,glycan array binding signal (z-score),[11],2.27
same,glycan array binding signal (z-score),[12],0.052
same,glycan array binding signal (z-score),[13],2.9
same,glycan array binding signal (z-score),[14],-0.335
same,glycan array binding signal (z-score),[15],-0.331
same,glycan array binding signal (z-score),[16],-0.332
same,glycan array binding signal (z-score),[17],-0.336
same,glycan array binding signal (z-score),[18],-0.314
same,glycan array binding signal (z-score),[19],-0.306
same,glycan array binding signal (z-score),Fuc(a1-2)Gal(b1-4)Glc,0.436
same,glycan array binding signal (z-score),Fuc(a1-2)Gal(b1-4)Glc6S,2.03
same,glycan array binding signal (z-score),Fuc(a1-2)Gal(b1-4)GlcNAc,-0.308
same,glycan array binding signal (z-score),[20],-0.337
same,glycan array binding signal (z-score),[21],1.31
same,glycan array binding signal (z-score),[22],-0.289
same,glycan array binding signal (z-score),[23],0.526
same,glycan array binding signal (z-score),[24],-0.168
same,glycan array binding signal (z-score),[25],0.55
same,glycan array binding signal (z-score),[26],0.07
same,glycan array binding signal (z-score),[27],-0.317
same,glycan array binding signal (z-score),[28],-0.323
same,glycan array binding signal (z-score),[29],0.468
same,glycan array binding signal (z-score),[30],-0.336
same,glycan array binding signal (z-score),[31],-0.269
same,glycan array binding signal (z-score),[32],-0.326
same,glycan array binding signal (z-score),[33],-0.324
same,glycan array binding signal (z-score),[34],-0.324
same,glycan array binding signal (z-score),[35],-0.327
same,glycan array binding signal (z-score),[36],-0.324
same,glycan array binding signal (z-score),[37],-0.326
same,glycan array binding signal (z-score),[38],-0.347
same,glycan array binding signal (z-score),[39],-0.325
